Test results reported in PMC4242493.
The other results are listed elsewhere or left out. The list includes weakly bound sequences.

Molecular target: MaxL homodimer (UniProt P61244)
Test: universal protein-binding microarray (PBM)
Conditions: PBS-based mixture, 10 nM His-tagged protein dimer, 2% milk, 200 ng/uL BSA, 50 ng/uL salmon testes DNA, 0.02% TX-100; detection with Alexa 488 anti-His …; high values mean tight binding; most listed sequences are background and not binding sites; double strand, one strand shown

UniProt P61244, sequence (P61244 whole entry): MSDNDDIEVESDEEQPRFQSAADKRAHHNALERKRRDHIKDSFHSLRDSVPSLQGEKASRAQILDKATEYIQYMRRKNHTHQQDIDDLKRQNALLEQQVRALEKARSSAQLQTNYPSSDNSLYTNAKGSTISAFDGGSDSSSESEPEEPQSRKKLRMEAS

Sequence | binding signal (normalized occupancy)
ACACAAAT | 0.0826
AGTTTGAC | 0.0699
CATAATTC | 0.082
GCAAGTAC | 0.0746
CGGATAAG | 0.0773
ACACGCGG | 0.143
AATCGGGG | 0.0779
CCTGCAAG | 0.0724
CCGACTTA | 0.0735
ATTTCAGC | 0.0717
ATTTTCCG | 0.0693
GCTTCTCA | 0.0754
AAGTATCA | 0.0801
CAATGCGA | 0.0774
ATCATAAA | 0.0777
AGAACGGC | 0.0679
ATAATGAC | 0.0804
CATAATCG | 0.0831
GACGTTGA | 0.0764
AATTGTCA | 0.0762
AAAATCTG | 0.0747
GACACTGC | 0.0711

Sequence | binding signal (normalized occupancy)
CAAGGCCC | 0.0714
CCACGAGA | 0.1
GAGGCAGC | 0.0729
AATTACAT | 0.0715
GGACTCTA | 0.0778
GGAAGGTA | 0.0851
CGGCGTTA | 0.0725
AGCGTAGC | 0.0653
ACGGGACT | 0.0695
AGTAAAAC | 0.073
ATATAGAG | 0.0887
ACGAGATA | 0.0815
CTACGGTC | 0.0697
CGGTCAGA | 0.0721
GGTCCAGA | 0.0759
GCCCTTTA | 0.0709
GACCAGCC | 0.0695
CTACGATA | 0.0797
GAAGCTGC | 0.066
ACGCCACT | 0.0784
ATTCGACC | 0.0704
CTGAAGCC | 0.0704

Sequence | binding signal (normalized occupancy)
CAGGGGAA | 0.0739
GAGGTAAA | 0.0706
GTAAAGTA | 0.0801
TCAATGCA | 0.0838
CAGCGCGC | 0.0795
CATACAGG | 0.0807
GCACCATA | 0.0825
GATCGACC | 0.0678
AGGTTGAT | 0.0814
CGTCCGCA | 0.0777
GACGAGTA | 0.0683
CACCGTCG | 0.0721
AGGCACGC | 0.0914
GAGCCTGA | 0.0681
CAGGCTAC | 0.0751
CGGGGCAG | 0.0705
ACATTTCA | 0.0787
CACCGTAA | 0.0762
AACAGGGA | 0.0709
ATGGTTTA | 0.0814
CGCTTTTC | 0.0678
CGCCTGCA | 0.0753

Sequence | binding signal (normalized occupancy)
CCTTCCAA | 0.073
CCTAAACG | 0.0698
GATATAAC | 0.08
GGTATTGA | 0.0764
CCAGAAGC | 0.07
GGATAGCC | 0.0768
GATGGGGC | 0.0757
GGAGGCCC | 0.0652
ACGGTAGG | 0.0711
CTAGAGAG | 0.0688
CAGCACGA | 0.0909
AAGCATCG | 0.07
CACAGAAG | 0.0695
GACGGTAC | 0.0707
CATTGAAG | 0.0779
GGAGTACA | 0.0797
GCCCCAAC | 0.0763
AGATTCAG | 0.0696
CCGTCTGC | 0.0693
AATAGCAC | 0.0801
